From PMC4336329 (PLoS ONE, 2015)
In all, about 310,000 compounds went through this assay and about 2,200 (0.71%) showed an effect of 50% or more. The effect is printed as a negative number. This is one part of the list.

target: human ether-à-go-go-related gene (hERG) potassium channel (human, UniProt Q12809); experiment: primary screen, population patch clamp on CHO cells stably expressing hERG
Sequence (Q12809 whole entry, looked up): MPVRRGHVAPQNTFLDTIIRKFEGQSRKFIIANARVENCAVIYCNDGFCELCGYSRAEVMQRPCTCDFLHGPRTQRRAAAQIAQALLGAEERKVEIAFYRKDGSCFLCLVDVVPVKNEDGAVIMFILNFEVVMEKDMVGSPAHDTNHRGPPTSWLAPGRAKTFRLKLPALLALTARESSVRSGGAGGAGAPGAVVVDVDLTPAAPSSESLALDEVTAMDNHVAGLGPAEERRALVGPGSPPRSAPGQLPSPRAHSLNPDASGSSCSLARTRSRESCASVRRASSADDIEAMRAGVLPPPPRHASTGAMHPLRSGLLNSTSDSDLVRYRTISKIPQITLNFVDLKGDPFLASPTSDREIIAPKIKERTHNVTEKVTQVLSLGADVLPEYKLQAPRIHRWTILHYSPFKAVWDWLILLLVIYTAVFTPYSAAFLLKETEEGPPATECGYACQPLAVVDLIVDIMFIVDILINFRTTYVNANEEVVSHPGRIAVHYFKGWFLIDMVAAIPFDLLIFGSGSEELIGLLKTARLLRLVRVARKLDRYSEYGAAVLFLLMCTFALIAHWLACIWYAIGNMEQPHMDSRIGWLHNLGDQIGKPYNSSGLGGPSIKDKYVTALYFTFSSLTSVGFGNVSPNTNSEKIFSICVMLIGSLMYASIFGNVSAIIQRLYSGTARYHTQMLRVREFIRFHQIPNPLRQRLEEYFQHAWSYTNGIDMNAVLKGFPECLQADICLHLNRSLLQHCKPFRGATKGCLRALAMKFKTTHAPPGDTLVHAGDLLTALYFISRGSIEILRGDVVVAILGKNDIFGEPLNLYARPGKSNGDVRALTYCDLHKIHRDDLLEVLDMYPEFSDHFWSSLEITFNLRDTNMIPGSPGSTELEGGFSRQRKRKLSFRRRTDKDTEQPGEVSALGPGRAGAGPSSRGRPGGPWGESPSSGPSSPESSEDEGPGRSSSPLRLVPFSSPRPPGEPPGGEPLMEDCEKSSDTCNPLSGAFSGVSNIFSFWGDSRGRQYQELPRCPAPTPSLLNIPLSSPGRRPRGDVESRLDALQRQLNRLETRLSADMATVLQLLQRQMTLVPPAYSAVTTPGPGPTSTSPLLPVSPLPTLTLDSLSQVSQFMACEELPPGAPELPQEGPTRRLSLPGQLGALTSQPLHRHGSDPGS

Row | SMILES | hERG current change (%, negative = inhibition) at 1uM
1 | CC(=O)NC(NC(=S)Nc1ccccc1Br)C(Cl)(Cl)Cl (stereo not shown) | 13.4%
2 | CC(C)CN1C(=O)C(=Nc2cccnc2)c2ccccc21 | 5.77%
3 | O=C(Nc1ccccc1Cl)c1ccc(COc2ccc3c(c2)CCC3)cc1 | 15.4%
4 | CCOC(=O)c1[nH]ncc1CN1CCCC(C(=O)c2cccc(Cl)c2)C1 (stereo not shown) | 6.01%
5 | CN1C(=O)/C(=C/c2ccccc2OCc2cccc(F)c2)N(C)C1=S | 13.9%
6 | COc1ccc2oc(=O)cc(C)c2c1 | 2.96%
7 | CN(CC(=O)Nc1ccc(F)c(Cl)c1)S(=O)(=O)c1ccc2c(c1)n(C)c(=O)c(=O)n2C | 9.13%
8 | Cc1nc2c(N=Nc3ccccc3F)c(N)nn2c(N)c1C#N | 3.85%
9 | COC(=O)[C@H](Cc1c[nH]c2ccccc12)NC(=O)CCCc1c[nH]c2ccccc12 | 8.33%
10 | COc1ccc(OCC(=O)Nc2cc3c(cc2C(=O)O)OCCCO3)cc1 | 14.7%
11 | O=C(NC1CCCc2ccccc21)C1CCC(CNc2c(N3CCOCC3)c(=O)c2=O)CC1 (stereo not shown) | 16.2%
12 | Cc1cccnc1NC(=O)c1ccc(S(=O)(=O)N2CC(C)OC(C)C2)cc1 (stereo not shown) | 6.65%
13 | CC1CCN(C(=O)c2ccccc2NS(=O)(=O)c2ccccc2)CC1 | 11.4%
14 | O.OC[C@H]1O[C@H](OC[C@H]2O[C@H](OC[C@H]3O[C@H](O[C@]4(CO)O[C@H](CO)[C@@H](O)[C@@H]4O)[C@H](O)[C@@H](O)[C@@H]3O)[C@H](O)[C@@H](O)[C@H]2O)[C@H](O)[C@@H](O)[C@H]1O | 21.7%
15 | O=C(CSc1ccc2nnc(-c3ccccn3)n2n1)Nc1nccs1 | 7.18%
16 | CCOC(=O)C(NC(=O)NC1CCCCC1)(c1ccccc1)C(F)(F)F (stereo not shown) | -5.25%
17 | COc1cc2nc(CN3CCOCC3)n(CC(=O)N3CCCCCC3)c(=O)c2cc1OC | 7.99%
18 | N#CC1(NC(=O)COc2cc(F)ccc2[N+](=O)[O-])CCCCC1 | 1.13%
19 | Cc1ccc(S(=O)(=O)N2CCN(C(=O)CCCOc3cccc(C)c3)CC2)cc1 | 15.4%
20 | O=c1c2ccccc2nc(-c2ccc(Cl)cc2Cl)n1CCCn1ccnc1 | -14%
21 | CC(C)=CCC/C(C)=C/C=N/NC(=O)c1ccccc1[N+](=O)[O-] | -0.892%
22 | Cc1cnc(C(=O)OCC(=O)N2CCN(S(=O)(=O)c3ccc(Cl)cc3)CC2)cn1 | 6.01%

Row | SMILES | hERG current change (%, negative = inhibition) at 1uM
23 | Cc1cc(N2CCC(C)CC2)nc(-c2ccccc2O)n1 | 6.78%
24 | OC(CNc1nc(C(F)(F)F)nc2ccccc12)c1ccccc1 (stereo not shown) | 10.5%
25 | COc1ccc(OC)c(NC(=O)c2nc(S(=O)(=O)Cc3ccccc3)ncc2Cl)c1 | 5.45%
26 | CCOC(=O)C1=C(C)NC(SCC(=O)OC)=C(C#N)C1c1ccc(C(=O)OC)cc1 (stereo not shown) | 3.85%
27 | CCn1c(SCc2ccc(Cl)cc2)nnc1-c1ccccc1 | 7.72%
28 | C/C(N)=C(/C#N)C(=O)CSc1nc2scc(-c3ccccc3)c2c(=O)n1C | 14.9%
29 | O=C(NCc1ccc(Cl)cc1)C1CCCCN1S(=O)(=O)c1ccccc1 (stereo not shown) | 11.7%
30 | O=C(CN1CCCCCCC1)Nc1ccc(Cl)cc1Cl | 12.8%
31 | Cc1ccc(C2=C/C(=C/c3cccnc3)C(=O)O2)c(C)c1 | 15.8%
32 | N#Cc1cccc(NC(=O)CSc2nnc(C3CC3)n2C2CC2)c1 | -11%
33 | CO[C@H]1C=CO[C@@]2(C)Oc3c(C)c(O)c4c(O)c(c5c(c4c3C2=O)NC2(CCN(CC(C)C)CC2)N=5)=NC(=O)C(C)=CC=C[C@H](C)[C@H](O)[C@@H](C)[C@@H](O)[C@@H](C)[C@H](OC(C)=O)[C@@H]1C | 15.5%
34 | COc1cc2c(cc1OC)C(C1C(=O)CC(C)CC1=O)N(C(=O)CCl)CC2 (stereo not shown) | 10.6%
35 | O=C(O)CCc1ccc(-c2ccc(F)cc2)n1CC(=O)O | 5.46%
36 | CCOC(=O)[C@@H]1[C@H]2COc3cc(OC)ccc3[C@@H]2N2C(=O)N(c3cccc(Cl)c3)C(=O)[C@]12C | 20.8%
37 | Cc1ccc(Cl)cc1N1CCN(C(=O)C2CCN(S(=O)(=O)c3c(C)nn(C)c3C)CC2)CC1 | 3.41%
38 | O=C1COc2ccc(C(=O)c3ccccc3C(=O)O)cc2N1 | 14.2%
39 | CC1(C)SC(=S)N(/N=C/c2ccc(O)cc2)C1N(O)C(=O)Nc1ccc([N+](=O)[O-])cc1 (stereo not shown) | 8.05%
40 | CN1CCN(c2nc(-c3ccc(Cl)cc3Cl)nc3ccccc23)CC1 | -58.1%
41 | Cc1cc(O)ccc1C1(c2ccc(O)cc2C)OC(=O)c2ccccc21 | -10.2%
42 | CN(C)CCCN(C(=O)COc1ccccc1)c1nc2cc3c(cc2s1)OCCO3 | -8.76%
43 | Cc1ccc(NC(=O)c2ccc(CSc3nccc(C)n3)cc2)cc1 | -2.54%
44 | COC(=O)c1ccc(Cn2cnc3c(cnn3-c3ccc(F)cc3)c2=O)o1 | -1.84%

Row | SMILES | hERG current change (%, negative = inhibition) at 1uM
45 | CNC(=O)CSc1ncnc2c1cnn2-c1ccccc1 | 7.62%
46 | C=CCC1C=C(C)CC(CC=C)N1 (stereo not shown) | 4.64%
47 | O=C(O)CN1C(=O)/C(=C\c2cc(Br)ccc2OCc2ccc(Cl)cc2Cl)SC1=S | 11.3%
48 | Cn1nc(C(=O)N2CCN(c3ccc(F)cc3)CC2)c2c1-c1ccccc1S(=O)(=O)C2 | -16.4%
49 | CCOC(=O)c1c(NC(=O)c2ccccc2C(=O)O)sc2c1CCC2 | 2.17%
50 | COc1c(O)cc2oc(-c3ccc(O)c(O)c3)cc(=O)c2c1O | 15.7%
51 | CC(CCc1ccccc1)NC(=O)/C=C/c1ccc(F)cc1 (stereo not shown) | -2.83%
52 | Cn1c(-c2ccc(F)cc2)cnc1SCC(=O)Nc1ccccc1N1CCOCC1 | 10.9%
53 | O=C(NCCS(=O)(=O)NCc1ccc(Cl)cc1)c1ccccc1 | 4.67%
54 | COc1ccccc1-c1coc2c(CN3CCCCC3C)c(O)ccc2c1=O (stereo not shown) | 13%
55 | O=C1c2ccccc2C(O)(Cc2ccccc2)N1Cc1ccco1 (stereo not shown) | 17.4%
56 | C/C(CC(=O)NC(C)C)=N\NC(=O)COc1cc(C)c(Br)cc1Br | -21.6%
57 | O=C(CC1CCCC1)N1CCCC(Nc2cccc(F)c2)C1 (stereo not shown) | 10.6%
58 | Cc1ccsc1C(=O)NCC(C)(C)N1CCOCC1 | 4.07%
59 | C=CCOC(=O)c1ccccc1N | 12.9%
60 | C[C@@H]1C=C(C(=O)N2CCOCC2)O[C@H](OCc2ccc(CO)cc2)C1 | 10.9%
61 | Cc1nc2sc(C(c3ccccc3)N3CCOCC3)c(O)n2n1 (stereo not shown) | 16.2%
62 | O=C(Nc1ncc2c(n1)-c1ccccc1OC2)c1cccc([N+](=O)[O-])c1 | 5.65%
63 | Brc1ccc(-c2nc(-c3cccnc3)no2)o1 | 6.88%
64 | COc1ccc(C(C)=O)cc1CSc1nnnn1-c1ccc(O)cc1 | 5.32%
65 | Cc1ccc(-n2c(O)c(C=NC3CCS(=O)(=O)C3)c3ccccc3c2=O)cc1C (stereo not shown) | 4.45%
66 | CCOP(=O)(OCC)C(O)c1ccc(OC)cc1 (stereo not shown) | 12%

Row | SMILES | hERG current change (%, negative = inhibition) at 1uM
67 | CCOc1ccc(C(C)=O)cc1CSc1nnc(-c2ccncc2)n1CCOC | 2.2%
68 | CCOc1ccc(NC(=O)COC(=O)CCCc2c[nH]c3ccccc23)cc1 | -7.5%
69 | N#CC1(C#N)CC(C=O)=C(N)C1(C#N)CC(=O)c1ccc(F)cc1 (stereo not shown) | 3.15%
70 | Cc1cc(Cl)c(S(=O)(=O)NCc2ccncc2)cc1OCC(N)=O | 7.48%
71 | CC(SCc1ccc(C(=O)O)o1)c1ccc(C(=O)O)o1 (stereo not shown) | 16.7%
72 | CC(=O)Nc1ccc(NC(=O)C(C)n2nc(C)c([N+](=O)[O-])c2C)cc1 (stereo not shown) | 12.4%
73 | CCOc1ccc(-n2c(SC)nc3c(c2=O)SCC3)cc1 | 22.9%
74 | Cc1cc(OC(=O)c2cccs2)c2c3c(c(=O)oc2c1)CCCC3 | 15.3%
75 | Fc1ccc(-n2c(Cc3ccccc3)nnc2SCc2nc(-c3cccs3)no2)cc1 | -0.191%
76 | COC(=O)c1cc(OC)c(OC)cc1NCC(=O)Nc1ccc(OC)c(OC)c1 | 13.5%
77 | CCN(CC)c1nc(C)c(C(C)=O)cc1C#N | 5.88%
78 | COc1ccc2c(c1)C(C1=C(O)CC(C)(C)CC1=O)C1=C(CC(C)(C)CC1=O)O2 (stereo not shown) | 2.5%
79 | CC1CCCC(C)N1C(=O)c1cccc2c1-c1ccccc1/C2=N/O (stereo not shown) | 15.1%
80 | CCNC(=O)NC(=O)CSc1ccccc1F | 9.56%
81 | CC(C)(C)C1=CC=C(C(C)(C)C)C(=O)C1=O | 7.14%
82 | COc1ccc(N2CCN(C3CCCN(Cc4cccc(C(C)=O)c4)C3)CC2)cc1 (stereo not shown) | 1.73%
83 | N=c1c(C(=O)NCc2ccco2)cc2c(=O)n3ccccc3nc2n1CC1CCCO1 (stereo not shown) | -84.3%
84 | Clc1ccc(-c2noc(CCCc3ccccc3)n2)cc1 | 16.1%
85 | CCOc1ccc2ncc(C(=O)c3ccc(OC)cc3)c(N3CCN(CC)CC3)c2c1 | -66%
